Like-named read-outs stand apart in the source and are kept apart here.
Assays:
Test in all cases: cell-based or functional assay
human RXFP1 [1] = biological target: T1, human RXFP1 (human, UniProt Q9HBX9 1-757)
T1 sequence (looked up): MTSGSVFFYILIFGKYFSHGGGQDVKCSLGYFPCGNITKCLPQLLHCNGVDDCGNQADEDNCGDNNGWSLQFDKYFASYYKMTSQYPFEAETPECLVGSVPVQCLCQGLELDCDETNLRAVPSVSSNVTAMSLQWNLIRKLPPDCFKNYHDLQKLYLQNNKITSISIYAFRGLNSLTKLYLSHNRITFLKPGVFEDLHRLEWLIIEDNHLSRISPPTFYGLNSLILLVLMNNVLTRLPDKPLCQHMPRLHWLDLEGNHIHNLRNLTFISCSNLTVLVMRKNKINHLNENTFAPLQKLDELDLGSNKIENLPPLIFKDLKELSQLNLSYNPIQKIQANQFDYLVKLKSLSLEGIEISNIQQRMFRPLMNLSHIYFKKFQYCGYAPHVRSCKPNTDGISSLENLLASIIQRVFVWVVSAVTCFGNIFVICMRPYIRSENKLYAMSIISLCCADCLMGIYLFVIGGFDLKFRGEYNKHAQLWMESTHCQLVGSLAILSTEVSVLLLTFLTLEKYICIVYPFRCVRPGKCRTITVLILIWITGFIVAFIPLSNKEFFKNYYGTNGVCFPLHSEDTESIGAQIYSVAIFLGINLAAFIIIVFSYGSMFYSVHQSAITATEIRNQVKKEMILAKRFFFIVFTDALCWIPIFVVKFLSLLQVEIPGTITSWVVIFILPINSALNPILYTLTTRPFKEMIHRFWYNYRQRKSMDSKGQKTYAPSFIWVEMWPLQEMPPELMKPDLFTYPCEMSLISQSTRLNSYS

mouse RXFP1 [2] = biological target: T2, mouse RXFP1 (mouse, UniProt Q6R6I7 1-758)
T2 sequence (looked up): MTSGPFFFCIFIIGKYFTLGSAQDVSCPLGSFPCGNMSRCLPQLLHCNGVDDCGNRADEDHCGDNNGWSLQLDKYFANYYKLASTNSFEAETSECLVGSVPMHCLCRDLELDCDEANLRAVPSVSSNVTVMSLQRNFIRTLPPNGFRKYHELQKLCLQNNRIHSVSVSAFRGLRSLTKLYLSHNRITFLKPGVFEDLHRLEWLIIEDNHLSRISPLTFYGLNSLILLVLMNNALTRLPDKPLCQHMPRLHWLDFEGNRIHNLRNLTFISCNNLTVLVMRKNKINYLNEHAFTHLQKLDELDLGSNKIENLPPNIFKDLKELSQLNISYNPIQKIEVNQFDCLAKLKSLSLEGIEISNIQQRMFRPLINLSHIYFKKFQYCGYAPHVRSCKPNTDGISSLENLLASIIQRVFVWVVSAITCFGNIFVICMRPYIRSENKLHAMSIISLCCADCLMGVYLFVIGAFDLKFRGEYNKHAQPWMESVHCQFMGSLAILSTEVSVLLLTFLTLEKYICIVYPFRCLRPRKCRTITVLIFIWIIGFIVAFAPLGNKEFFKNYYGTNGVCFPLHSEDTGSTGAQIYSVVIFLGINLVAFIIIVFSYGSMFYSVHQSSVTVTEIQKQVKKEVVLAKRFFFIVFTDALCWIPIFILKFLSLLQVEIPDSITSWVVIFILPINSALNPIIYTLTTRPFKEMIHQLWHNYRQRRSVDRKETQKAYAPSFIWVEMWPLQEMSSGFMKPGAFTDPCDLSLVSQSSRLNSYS

human RXFP2 [3] = biological target: T3, human RXFP2 (human, UniProt Q8WXD0 1-754)
T3 sequence (looked up): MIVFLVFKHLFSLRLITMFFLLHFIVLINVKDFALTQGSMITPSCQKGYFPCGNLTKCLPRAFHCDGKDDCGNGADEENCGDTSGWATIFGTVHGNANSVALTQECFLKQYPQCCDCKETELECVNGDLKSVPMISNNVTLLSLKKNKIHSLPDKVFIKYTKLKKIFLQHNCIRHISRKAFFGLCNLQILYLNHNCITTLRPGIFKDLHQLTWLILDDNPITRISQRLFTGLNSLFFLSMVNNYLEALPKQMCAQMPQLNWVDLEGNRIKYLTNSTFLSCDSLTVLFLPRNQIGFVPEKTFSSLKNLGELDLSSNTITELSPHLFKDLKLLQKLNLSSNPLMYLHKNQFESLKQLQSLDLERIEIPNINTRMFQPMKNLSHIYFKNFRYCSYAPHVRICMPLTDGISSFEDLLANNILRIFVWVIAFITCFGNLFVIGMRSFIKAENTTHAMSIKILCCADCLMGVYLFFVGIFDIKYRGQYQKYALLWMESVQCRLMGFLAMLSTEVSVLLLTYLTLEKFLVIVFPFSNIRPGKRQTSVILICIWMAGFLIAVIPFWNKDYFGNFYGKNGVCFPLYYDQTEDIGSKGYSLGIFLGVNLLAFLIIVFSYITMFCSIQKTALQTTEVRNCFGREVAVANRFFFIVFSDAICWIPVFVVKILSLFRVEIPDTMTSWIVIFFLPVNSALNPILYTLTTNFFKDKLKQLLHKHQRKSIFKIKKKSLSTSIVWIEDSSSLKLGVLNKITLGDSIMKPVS

human RXFP1 [4] = biological target: T1, human RXFP1; remark: listed apart in the source
mouse RXFP1 [5] = biological target: T2, mouse RXFP1; remark: listed apart in the source
human RXFP2 [6] = biological target: T3, human RXFP2; remark: listed apart in the source

B1: RELAX0010 (Fc fusion)
chain: [human IgG1 Fc not given here]GGGGSGGGGSGGGGSQLYSALANKCCHVGCTKRSLARFCGGGGSGGGGSGGGGSSWMEEVIKLCGRELVRAQIAICGMSTWS
EC50 hRXFP1 (M), cAMP HTRF assay (human RXFP1 [1]): 8.3e-12 M | EC50 mRXFP1 (M), cAMP HTRF assay (mouse RXFP1 [2]): 7.64e-12 M | EC50 hRXFP2 (M), cAMP HTRF assay (human RXFP2 [3]): 2.88e-07 M | EC50 hRXFP1 (M), cAMP HTRF assay (human RXFP1 [4]): 8.3e-12 M | EC50 mRXFP1 (M), cAMP HTRF assay (mouse RXFP1 [5]): 7.64e-12 M | EC50 hRXFP2 (M), cAMP HTRF assay (human RXFP2 [6]): 2.88e-07 M

— patent publication US20250295737A1 (AstraZeneca / MedImmune, published 2025)
